Reference: a compilation of properties of binary mixtures (doi:10.1016/j.molliq.2010.03.018)
Some of these densities may be calculated back from excess volumes.

Assay: xn = mol fraction of the nth substance listed
Details: 101 kPa

COCCOCCO + CCCC[n+]1ccn(C)c1.F[P-](F)(F)(F)(F)F
mass density [kg/m3]
Details | x1 = 0.1008 | x1 = 0.2217 | x1 = 0.3398 | x1 = 0.4582 | x1 = 0.519 | x1 = 0.6876 | x1 = 0.8005 | x1 = 0.8758 | x1 = 0.9136
288.15 K | – | 1329.3 | 1300.4 | 1267.7 | 1249 | 1190 | – | – | 1082
298.15 K | 1347.3 | – | 1291.9 | 1259.1 | – | 1181.6 | 1133.2 | 1094.9 | 1073.2
308.15 K | 1339 | 1312.7 | 1283.7 | 1250.8 | 1232.1 | – | – | 1086.2 | 1064.5

COCC(C)O (stereo not drawn) + CCCC[n+]1ccn(C)c1.F[P-](F)(F)(F)(F)F
mass density [kg/m3]
Details | x1 = 0.0426 | x1 = 0.126 | x1 = 0.2396 | x1 = 0.4116 | x1 = 0.5071 | x1 = 0.6847 | x1 = 0.8536 | x1 = 0.9447
288.15 K | 1367.2 | 1349.1 | 1321.9 | – | 1237.5 | 1158.5 | – | 981
298.15 K | 1358.7 | 1340.6 | 1313.5 | – | 1228.7 | 1149.6 | 1046.3 | 971.6
308.15 K | 1350.4 | – | 1305 | 1254.4 | 1220 | 1140.6 | – | 962.1

CCOCC(C)O (stereo not drawn) + CCCC[n+]1ccn(C)c1.F[P-](F)(F)(F)(F)F
mass density [kg/m3]
Details | x1 = 0.0532 | x1 = 0.172 | x1 = 0.255 | x1 = 0.3298 | x1 = 0.5031 | x1 = 0.6555 | x1 = 0.8423 | x1 = 0.9 | x1 = 0.9474
288.15 K | 1362.3 | 1330 | 1305.3 | – | 1214 | – | – | – | –
298.15 K | 1353.8 | 1321.6 | 1296.8 | 1272.2 | 1205.2 | 1132.7 | – | 978.1 | 939.6
308.15 K | 1345.6 | 1313.5 | – | 1263.8 | 1196.6 | 1124 | 1011.3 | 968.8 | –
